Experimental data published in PMC4336329 (PLoS ONE, 2015).
Out of some 310,000 compounds screened, about 2,200 (0.71%) showed an effect of 50% or more. The effect is printed as a negative number. The list shows a part of the results.

Each compound was assayed against human ether-à-go-go-related gene (hERG) potassium channel (human, UniProt Q12809) (assay: primary screen, population patch clamp on CHO cells stably expressing hERG).
human ether-à-go-go-related gene (hERG) potassium channel, sequence (Q12809 whole entry, looked up): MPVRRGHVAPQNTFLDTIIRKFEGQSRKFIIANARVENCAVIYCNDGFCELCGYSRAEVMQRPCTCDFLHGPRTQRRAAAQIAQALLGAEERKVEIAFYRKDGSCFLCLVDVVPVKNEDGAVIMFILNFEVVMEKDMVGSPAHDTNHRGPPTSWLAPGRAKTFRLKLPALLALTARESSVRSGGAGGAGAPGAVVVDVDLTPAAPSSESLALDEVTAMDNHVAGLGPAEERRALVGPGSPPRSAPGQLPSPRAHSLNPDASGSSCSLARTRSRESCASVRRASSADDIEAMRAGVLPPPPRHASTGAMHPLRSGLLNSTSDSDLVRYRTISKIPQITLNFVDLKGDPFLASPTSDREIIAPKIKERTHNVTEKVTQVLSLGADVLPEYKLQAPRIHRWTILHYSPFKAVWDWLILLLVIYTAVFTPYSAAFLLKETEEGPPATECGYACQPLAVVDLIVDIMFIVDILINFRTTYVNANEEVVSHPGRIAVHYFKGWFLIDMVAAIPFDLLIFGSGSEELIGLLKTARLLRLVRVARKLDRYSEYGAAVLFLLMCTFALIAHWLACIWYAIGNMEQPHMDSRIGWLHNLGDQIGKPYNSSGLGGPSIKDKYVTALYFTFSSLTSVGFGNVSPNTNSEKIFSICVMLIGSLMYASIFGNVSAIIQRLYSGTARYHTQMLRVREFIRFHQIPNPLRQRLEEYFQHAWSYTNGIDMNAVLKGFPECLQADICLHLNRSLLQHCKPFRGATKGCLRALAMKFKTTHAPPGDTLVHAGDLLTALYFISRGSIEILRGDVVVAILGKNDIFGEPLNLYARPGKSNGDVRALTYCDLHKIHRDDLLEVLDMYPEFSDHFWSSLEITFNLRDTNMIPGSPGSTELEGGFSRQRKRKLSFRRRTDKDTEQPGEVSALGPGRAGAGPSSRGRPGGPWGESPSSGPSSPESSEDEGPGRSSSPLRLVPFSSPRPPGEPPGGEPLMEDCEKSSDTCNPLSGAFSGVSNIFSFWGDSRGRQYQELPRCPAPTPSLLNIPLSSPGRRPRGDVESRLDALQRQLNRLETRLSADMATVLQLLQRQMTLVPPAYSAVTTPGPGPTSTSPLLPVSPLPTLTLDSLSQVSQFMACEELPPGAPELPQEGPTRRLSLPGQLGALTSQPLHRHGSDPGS

SMILES | hERG current change (%, negative = inhibition) at 1uM [%]
Cn1cnc(C(=O)N2CCN(C(=O)OC(C)(C)C)CC2)c1C(=O)N1CCN(C(=O)OC(C)(C)C)CC1 | 15.7
CC1(C)N=C(/C=N/O)CN1O | 14
Cc1oc(CC(C)C)c(CN2CCCC2)c1C(=O)O.Cl | 3.8
Nc1nc(SCC(=O)NCCN2CCOCC2)nc2sc3c(c12)CCC3 | -11.5
O=C(Nc1cccc(S(=O)(=O)N2CCCCC2)c1)c1cnccn1 | 3.58
Cc1cc(/C=C2/NC(=O)NC2=O)c(C)n1-c1ccc(C#N)cc1 | 3.44
O=C(/C=C/c1cccs1)N1CCCC1 | 13.7
COc1ccccc1/C=C/C(=O)N1CCOCC1 | 12.4
C=CCN(CC=C)C(=S)NC(=O)c1ccc([N+](=O)[O-])cc1 | 11.4
COc1ccc(CCNC(=O)C2CCCN2C(=O)Nc2ccc(Cl)cc2)cc1OC (stereo not shown) | 8.1
CC(=O)NC(Cc1ccccc1C)C(=O)NC1CCN(C(=O)c2cccc(C)c2)CC1 (stereo not shown) | 28.8
CC1CN(C(=O)COC(=O)c2ccc(S(=O)(=O)N(C)C)cc2)CC(C)O1 (stereo not shown) | 15.2
Cc1ccccc1NC(=O)c1ccc2ccccc2c1 | 3.72
O=C(Cc1ccccc1)N1CCC2(CC1)NCCc1[nH]cnc12 | 20.4
CC(C)C(NC(=O)c1ccc(C(C)(C)C)cc1)C(=O)NC1=NCCS1 (stereo not shown) | 3.43
CCOc1ccc(OCC)c(NC(=O)c2ccc(CNc3c(N4CCOCC4)c(=O)c3=O)cc2)c1 | 7.51
COc1cccc(C2=NOC(C(=O)Nc3ccc(OC)c(OC)c3)C2)c1 (stereo not shown) | -2.07
CN(C)C1(CNC(=O)C2CCN(S(=O)(=O)c3cccc(C(F)(F)F)c3)CC2)CCCCC1 | -14.1
Cc1cc(C)n2nc(C(=O)Nc3ccc(S(=O)(=O)N4CCCC4)cc3)nc2n1 | 0.932
CC(C)C(=O)NCC(c1cccs1)S(=O)(=O)c1ccc(F)cc1 (stereo not shown) | 14.1
CC(C)CNC(=O)c1cc(=O)[nH]c2ccc(S(=O)(=O)Nc3ccc(F)cc3)cc12 | 10.8
c1ccc(C2C3=C(Nc4ncnn42)c2ccccc2CCC3)cc1 (stereo not shown) | 14.8
CCCCC(CC(O)COCCC)C(=O)NN (stereo not shown) | 11.3
Cc1cccc(N(Cc2cc3ccc(C)cc3[nH]c2=O)C(=O)c2ccco2)c1 | 0.743
CCCCc1cc(=O)oc2cc(C)cc(OCC(=O)N[C@@H](CSCc3ccccc3)C(=O)O)c12 | 13.8
O=C(CC1C(=O)NCCN1Cc1ccc(Cl)c(F)c1)NC1CCC1 (stereo not shown) | 14
CC(=O)O[C@@]12CO[C@@H]1C[C@H](O)[C@@]1(C)C(=O)[C@H](O)C3=C(C)[C@@H](OC(=O)[C@H](O)[C@@H](NC(=O)c4ccccc4)c4ccccc4)C[C@@](O)([C@@H](OC(=O)c4ccccc4)C12)C3(C)C (stereo partly shown) | -2.75
CCC(CC)C(=O)Nc1nnc(SCC(=O)NC(C)(C)C)s1 | 10.7

SMILES | hERG current change (%, negative = inhibition) at 1uM [%]
OC(COc1cccc2ccccc12)CN1CCN(c2ccccc2Cl)CC1 (stereo not shown) | -8.1
O=C(CSc1nc(O)cc(=O)n1-c1ccccc1)NCc1ccccc1 | 5.12
Cc1ccc(NC(=O)c2cc([N+](=O)[O-])ccc2N2CCOCC2)cc1S(=O)(=O)N1CCOCC1 | -8.48
Cc1ccnc(NC(=O)CCC(=O)N(CC(=O)NCc2ccc(F)cc2)CC2CCCO2)c1 (stereo not shown) | 8.36
CN(Cc1cn(C)c2ccccc12)C(=S)Nc1cc(F)cc(F)c1 | -8.94
COc1ccc(CNCCc2ccccc2)cc1OCC(N)=O | -1.89
CCOc1ccc(CN(C)c2nc(-c3cccnc3)nc3ccccc23)cc1OC | 12.3
CCCCOC(=O)/C=C\C(=O)OCCCC | 14.7
COc1cc(/C=C/C(=O)OCC(=O)c2c(N)n(C)c(=O)n(C)c2=O)ccc1OCC#N | 5.72
O=c1c2ccccc2c(C=Nc2ccc(Cl)cn2)c(O)n1-c1cc(Cl)ccc1N1CCOCC1 | 6.33
O=P(O)(Cc1ccccc1)Cc1ccccc1 | 15.8
O=C(NCc1ccc(F)cc1)c1cc(S(=O)(=O)N2CCOCC2)ccc1F | -5.39
COc1ccc(-c2cc3ccccc3n2CC(O)CNCCO)cc1.O=C(O)C(=O)O (stereo not shown) | 10.2
C/C(=N\NC(=O)c1cc(-c2ccc(C)s2)nc2ccccc12)c1cccnc1 | 3.29
O=c1c2c3c(sc2nc2n1CCCC2)CCCCC3 | 7.25
C=CCn1c2ccccc2c2nnc(SCCN3CCOCC3)nc21 | 14.8
Cc1ccc(Cn2ncc3c(N4CCOCC4)ncnc32)cc1 | -4.1
O=C1CC(N(O)C2CC(=O)N(Cc3ccccc3)C2=O)C(=O)N1Cc1ccccc1 (stereo not shown) | -8.12
COc1ccccc1/C=C/C(=O)c1c2c(c(C)[nH]c1=O)CCCC2 | 7.36
CC(C)n1c(C(F)(F)F)nc2cc(C(=O)N3CCCCC3)ccc21 | 10
Cc1cc(Cl)c(S(=O)(=O)NC2CCCC2)cc1OCC(N)=O | 11.5
CCOC(=O)CC(NC(=O)c1cc2cc(Br)ccc2oc1=O)c1cccc([N+](=O)[O-])c1 (stereo not shown) | 9.71
CC(C)CNC(=O)CSc1nnc2ccccn12 | 5.44
COc1ccc(C2CCCN2C(=S)Nc2c(C)cccc2C)cc1OC (stereo not shown) | 9.38
CN(C)CC#Cc1cncc(C(=O)NNC(=O)Nc2ccc(Cl)cc2)c1 | 9.93
COc1c(C)cc(Br)cc1C(=O)Nc1ccc(S(N)(=O)=O)cc1 | 8.42
CCc1ccc2[nH]c(=O)c(CN(Cc3ccc4c(c3)OCO4)C(=O)c3ccco3)cc2c1 | -4.28
